Experimental data: patent US20220280527A1, “TRACE AMINE ASSOCIATED RECEPTOR 1 AGONISTS AND PARTIAL AGONISTS FOR PAIN TREATMENT” (Purdue Pharma L.P., priority 2016, published 2022)

How the values were obtained:
[1] = system: Sprague-Dawley rats; experiment: Rotarod performance; format: in vivo, rat; conditions: dosed orally at 3 mg/kg, 10 mg/kg, and 30 mg/kg
Description: The Rotarod test is used to evaluate motor coordination, strength, and balance. The animals are placed on the rotating rod of the device. The time during which an animal can maintain itself on said bar at an accelerating speed of 5-40 rpm is recorded. 300 seconds is the assay cut-off. Data are analyzed by a two-way ANOVA using a Bonferroni Multiple Comparisons test. […] In the experiment, male, Sprague-Dawley rats, 211-241 g (n=10/group) were tested on an accelerating rotarod (AccuScan; manual 5-40 rpm).

[2] = system: Sprague-Dawley rats; experiment: Tail flick test (nociceptive pain); format: in vivo, rat; conditions: IP, 3 mg/kg, 10 mg/kg, and 30 mg/kg, one hour prior to testing
[3] = system: Sprague-Dawley rats; experiment: Hot plate test (nociceptive pain); conditions: IP, 3 mg/kg, 10 mg/kg, and 30 mg/kg, one hour prior to testing, hot plate 52° C.

Row | Compound | rotarod performance (ataxia) [1] | analgesic efficacy in the tail flick assay [2] | analgesic efficacy in the hot plate assay [3]
1 | CC(C)N(Cc1cnc[nH]1)c1ccc(Cl)cc1 [Compound 1, N-((1H-imidazol-4-yl)methyl)-4-chloro-N-isopropylaniline] | did not produce ataxia | – | –
2 | CCN(CC1COC(N)=N1)c1ccccc1 (stereo not drawn) [Compound 2, 4-((ethyl(phenyl)amino)methyl)-4,5-dihydrooxazol-2-amine] | – | weak to marginal analgesic efficacy | not efficacious as an analgesic
